Measured values from PubChem BioAssay AID1347165 (National Center for Advancing Translational Sciences (NCATS), 2019).
About 5,700 (2.6%) of roughly 220,000 compounds were called active. Inconclusive means that the source gave no clear call. Such entries were picked first, then a sample of the others. Calls come from the whole dose curve; as a rule, active = well fitted inhibition curve with a large enough effect; inconclusive = small, poorly fitted or top-dose-only effect; inactive = no such curve, though single readings can be large or run the other way. Potencies of inconclusive entries are doubtful fits and often do not repeat.
Note: nearly all actives have a fitted effect of over 70% in size.
Potency is the fitted concentration of half-maximal effect; tags give direction and shape of the fitted curve.
Throughout, for activity change, negative = inhibition: 0% is about no effect.

Each molecule was assayed against Lysine-specific demethylase 5B (Homo sapiens) (UniProt Q9UGL1) (assay: Primary screen for KDM5B Histone Demethylases FDH-coupled qHTS). Conditions: FDH-coupled NADH fluorescence (FDH is formaldehyde dehydrogenase); activity change, negative = inhibition: at 57.7 µM (top of the series) unless noted.
Chain of UniProt Q9UGL1 (Q9UGL1 whole entry, looked up): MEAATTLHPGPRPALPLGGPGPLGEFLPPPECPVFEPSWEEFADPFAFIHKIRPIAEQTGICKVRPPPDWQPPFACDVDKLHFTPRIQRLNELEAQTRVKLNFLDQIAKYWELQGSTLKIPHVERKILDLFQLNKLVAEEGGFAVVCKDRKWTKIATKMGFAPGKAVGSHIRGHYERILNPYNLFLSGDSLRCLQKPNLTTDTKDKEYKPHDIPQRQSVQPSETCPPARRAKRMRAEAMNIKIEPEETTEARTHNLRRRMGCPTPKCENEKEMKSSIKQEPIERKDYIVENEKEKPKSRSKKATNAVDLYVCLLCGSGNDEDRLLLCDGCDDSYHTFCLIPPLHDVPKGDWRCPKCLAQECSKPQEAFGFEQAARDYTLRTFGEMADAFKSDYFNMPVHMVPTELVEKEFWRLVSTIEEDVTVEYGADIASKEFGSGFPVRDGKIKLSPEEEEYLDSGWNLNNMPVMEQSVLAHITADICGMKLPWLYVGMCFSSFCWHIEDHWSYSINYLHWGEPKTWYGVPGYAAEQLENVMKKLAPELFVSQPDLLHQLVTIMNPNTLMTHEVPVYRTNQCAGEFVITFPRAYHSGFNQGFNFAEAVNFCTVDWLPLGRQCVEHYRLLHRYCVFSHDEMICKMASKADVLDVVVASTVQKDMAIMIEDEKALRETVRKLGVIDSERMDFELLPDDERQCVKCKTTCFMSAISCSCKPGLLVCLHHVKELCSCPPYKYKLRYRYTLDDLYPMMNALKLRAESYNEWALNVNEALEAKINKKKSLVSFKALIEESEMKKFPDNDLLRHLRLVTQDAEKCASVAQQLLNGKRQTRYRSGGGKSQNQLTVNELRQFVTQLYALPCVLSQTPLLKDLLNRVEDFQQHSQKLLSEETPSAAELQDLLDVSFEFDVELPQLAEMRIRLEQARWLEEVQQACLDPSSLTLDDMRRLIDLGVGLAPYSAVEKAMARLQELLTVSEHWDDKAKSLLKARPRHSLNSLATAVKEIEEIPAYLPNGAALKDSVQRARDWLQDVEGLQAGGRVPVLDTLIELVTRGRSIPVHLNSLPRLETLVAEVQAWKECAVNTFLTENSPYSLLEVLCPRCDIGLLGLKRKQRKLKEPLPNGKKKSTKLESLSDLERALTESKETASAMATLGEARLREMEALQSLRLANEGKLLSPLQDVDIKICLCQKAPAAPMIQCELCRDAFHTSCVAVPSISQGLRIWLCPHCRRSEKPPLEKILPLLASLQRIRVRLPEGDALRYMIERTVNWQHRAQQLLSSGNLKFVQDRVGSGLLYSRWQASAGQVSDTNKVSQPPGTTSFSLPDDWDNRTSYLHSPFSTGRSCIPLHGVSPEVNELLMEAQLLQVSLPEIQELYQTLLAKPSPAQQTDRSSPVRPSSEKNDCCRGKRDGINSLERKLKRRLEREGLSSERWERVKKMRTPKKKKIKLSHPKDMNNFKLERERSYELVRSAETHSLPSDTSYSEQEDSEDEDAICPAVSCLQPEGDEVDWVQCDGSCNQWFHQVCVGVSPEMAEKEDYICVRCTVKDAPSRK
In short: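 Compound dilutions met 200 nM (final) KDM5BΔAP for 10 min at room temperature before substrate addition. The substrate mix held 12.5 µM H3K4me3 with cofactors 25 µM α-ketoglutarate and 50 µM Fe²⁺. NADH signal gain over 30 min defined activity.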
In the case of `CCC(=O)Nc1nnc(/C=C/c2ccc(OC)cc2)s1`, the Potency was inconclusive: 28.2 µM [inhibitor, partial curve, poor fit]. `Cc1cccc(CCN(C(=O)c2snc(C(N)=O)c2N)C(C(=O)NCC2CCCO2)c2ccc(F)cc2)c1` (stereo unspecified) was tested, and the Potency was inconclusive: 10 µM [inhibitor, partial curve, poor fit]. In the case of `COc1ccc(C2CC(=O)Nc3c(C(=O)O)cn(-c4ccc(F)cc4)c32)cc1O` (stereo unspecified), the Potency was inconclusive: 25.1 µM [inhibitor, partial curve, poor fit]. With `COc1ccc(N(CC(=O)N/N=C/c2ccc(C(=O)O)cc2)S(=O)(=O)c2ccc(NC(C)=O)cc2)cc1` the Potency was inconclusive: 22.4 µM [inhibitor, single point]. In the case of `COc1ccc(N2CC3CCC(C2)N3Cc2cccc(-c3ccc(F)cc3F)c2)cc1`, the Potency was active: 79.4 µM. In the case of `CSCCC(NS(=O)(=O)c1ccc2c(c1)oc(=O)n2C)C(=O)Nc1cc(C)cc(C)c1` (stereo unspecified), the “activity change, negative = inhibition” value was inactive: 19.1%. In the case of `CCC(NC(=O)C1CC1)C12CC3CC(CC(C3)C1)C2` (stereo unspecified), the “activity change, negative = inhibition” value was inactive: 18.1%. For `C[C@@H]1CN(C(=O)NCc2ccco2)C[C@H]1c1nc(-c2ccncc2)no1`, the Potency was inconclusive: 39.8 µM [inhibitor, single point]. For `N#C/C(=C\c1ccc2cccnc2c1)c1nc2ccccc2[nH]1`, the Potency was inconclusive: 12.6 µM [inhibitor, single point]. For `CC(C)=CC(=O)CC1(C#N)C(N)=C(C=O)CC1(C#N)C#N` (stereo unspecified), the Potency was inconclusive: 20 µM [inhibitor, partial curve, poor fit]. `COc1ccc2c(C)c(CC(=O)N3CCC(O)(c4ccc(Cl)cc4)CC3)c(=O)oc2c1` was tested, and the Potency was inconclusive: 3.98 µM [inhibitor, full curve, poor fit]. `Cc1ccccc1CNC(=O)CN1C(=O)C2(CCNCC2)Nc2ccccc21` was tested, and the Potency was active: 14.1 µM. With `CCCCN(Cc1ccsc1)C(=O)c1cnc(Nc2ccccc2)nc1` the Potency was inconclusive: 35.5 µM [inhibitor, partial curve, poor fit]. For `O=C(O)CCc1nnc2cnc3ccccc3n12`, the Potency was inconclusive: 39.8 µM [inhibitor, single point]. In the case of `Cc1ccc2ncc(C(=O)NC(C)c3ccccc3)c(=O)n2c1` (stereo unspecified), the Potency was inconclusive: 3.55 µM [inhibitor, full curve, poor fit]. In the case of `COc1ccc(Cl)cc1NC(=O)Cn1c(N(C)Cc2ccccc2)nc(C)cc1=O`, the Potency was inconclusive: 31.6 µM [inhibitor, single point]. With `Cc1ccc(C(=O)N2CCC(CCC(=O)NCCc3c[nH]c4ccccc34)CC2)cc1` the “activity change, negative = inhibition” value was inactive: -1.24%. In the case of `CN(CCc1noc(C2CN(Cc3ccc(F)c(F)c3)C2)n1)C(=O)C1CC1`, the “activity change, negative = inhibition” value was inactive: -9.48%. `O=C1COc2ccc(-c3ccoc3)nc2CN1Cc1ccccc1` was tested, and the Potency was active: 31.6 µM. In the case of `COCCc1noc([C@@H]2CC(F)(F)CN2C(=O)c2ncccc2C)n1`, the “activity change, negative = inhibition” value was inactive: -11.3%. With `COC[C@H]1CCCN1[C@@H]1[C@H](O)[C@H](CO)O[C@@H]1CNS(=O)(=O)c1cccs1` the Potency was inconclusive: 28.2 µM [inhibitor, single point]. For `Cc1ccc2nc(NC(=O)c3nc(SCc4ccccc4C)ncc3Cl)sc2c1`, the Potency was inconclusive: 7.08 µM [inhibitor, partial curve, poor fit]. For `Nc1ccc2nc(-c3ccc(O)cc3)sc2c1`, the “activity change, negative = inhibition” value was inactive: -561%. In the case of `Cc1ccc2scc(N3CCCCC3)c(=O)c2c1`, the Potency was inconclusive: 25.1 µM [inhibitor, partial curve, poor fit]. For `Cn1cc(-c2cnc3[nH]cc(CC(=O)Nc4cccc(F)c4)c3c2)cn1`, the Potency was active: 28.2 µM. `CCOC(=O)c1cc(-c2ccccc2)n(CCC(=O)Nc2cc(C)cc(C)c2)c1C` was tested, and the Potency was inconclusive: 15.8 µM [inhibitor, partial curve, poor fit]. With `CC(=O)Nc1cccc(NC(=O)COC(=O)c2cc3ccccc3[nH]2)c1` the Potency was inconclusive: 22.4 µM [inhibitor, single point]. For `COc1ccc(CN2CCc3nc(C(=O)NCCOc4ccccc4)oc3CC2)cn1`, the Potency was inconclusive: 35.5 µM [inhibitor, partial curve, poor fit]. In the case of `Cc1cc(C)cc(C(=O)NCc2nnc3ccc(-c4ccccc4)nn23)c1`, the Potency was active: 25.1 µM. With `COc1cccc(-n2cc(C(=O)OCc3ccc(Cl)cc3)c3ccccc3c2=O)c1` the Potency was inconclusive: 17.8 µM [inhibitor, partial curve, poor fit]. `Cc1cccc(CNC(=O)c2ccc(C)c(-n3c(C)nc4cccnc43)c2)c1` was tested, and the Potency was inconclusive: 10 µM [inhibitor, partial curve, poor fit]. For `O=C(Nc1cccc2ccccc12)O[C@@H]1CO[C@H]2[C@@H]1OC[C@@H]2Nc1nccc(-c2ccccc2)n1`, the Potency was inconclusive: 39.8 µM [inhibitor, single point]. In the case of `CCOC(=O)C1=C(C)N=C2SC=C(CC(=O)N3CCOCC3)N2C1c1cccc([N+](=O)[O-])c1` (stereo unspecified), the Potency was inconclusive: 28.2 µM [inhibitor, partial curve, poor fit]. `COc1cc(C(=O)OCC(=O)c2ccc(F)cc2F)cc(Cl)c1O` was tested, and the “activity change, negative = inhibition” value was inactive: -12.1%. For `C/C(=N\O)C1(C)CC2=C(CCCC2(C)C)CC1C` (stereo unspecified), the “activity change, negative = inhibition” value was inactive: -2.34%. In the case of `CC(=O)N1CCC([C@@H]2CN(Cc3cc(F)c(F)c(F)c3)C[C@H]2CO)CC1`, the “activity change, negative = inhibition” value was inactive: -4.54%. With `COc1ccc(C(=O)NC(=S)NNC(=O)c2ccc(O)cc2)cc1[N+](=O)[O-]` the Potency was inconclusive: 28.2 µM [inhibitor, single point]. In the case of `O=C(N[C@H]1CO[C@H]2[C@@H]1OC[C@@H]2Nc1nccc(-c2ccc(-c3ccccc3)cc2)n1)c1ccccc1`, the Potency was inconclusive: 3.16 µM [inhibitor, single point]. `O=C(Nc1ccc2cc[nH]c2c1)C(=O)N1CCCC1` was tested, and the “activity change, negative = inhibition” value was inactive: -2.3%. With `NC(=O)c1cc(Cc2ccccc2)sc1NC(=O)c1cccs1` the Potency was inconclusive: 15.8 µM [inhibitor, partial curve, poor fit]. With `CCOC(=O)c1cnc(Nc2cccc(C)c2C)c2ccccc12` the “activity change, negative = inhibition” value was inactive: 11.8%. In the case of `CC(Sc1cc(C(N)=O)c2ccccc2n1)c1nc(C(C)(C)C)no1` (stereo unspecified), the “activity change, negative = inhibition” value was inactive: -14.1%. In the case of `CCN(CC)S(=O)(=O)c1ccc2[nH]cc(C(=O)NCCc3ccccc3)c(=O)c2c1`, the Potency was inconclusive: 15.8 µM [inhibitor, partial curve, poor fit]. In the case of `O=c1c(S(=O)(=O)c2cccc(Cl)c2)cn(Cc2ccccc2)c2cc(N3CCCCC3)c(F)cc12`, the activity change, negative = inhibition was inconclusive: -32.2% [inhibitor]. For `CCN1c2cc(C(=O)NCCc3ccccc3)ccc2C(=O)N2CCCCC21` (stereo unspecified), the Potency was inconclusive: 20 µM [inhibitor, partial curve, poor fit]. In the case of `COc1cc(OC)cc(C(=O)Nc2nnc3n2CCS3)c1`, the Potency was inconclusive: 10 µM [inhibitor, partial curve, poor fit]. With `Cc1cccc(NC(=O)Cc2c(C)nc3nc(-c4cccs4)nn3c2C)c1C` the Potency was inconclusive: 1.78 µM [inhibitor, full curve, poor fit]. With `COCCn1c(C)c(C)c(S(=O)(=O)c2ccc(F)cc2)c1NC(=O)c1cccs1` the “activity change, negative = inhibition” value was inactive: -2.8%. `Cc1ccc(NC(=O)C2Cn3cccc3C(=O)N2C)cc1` (stereo unspecified) was tested, and the “activity change, negative = inhibition” value was inactive: -15.5%. `COc1cccc(C(=O)NCC(=O)OCc2cc(=O)n3ccsc3n2)c1` was tested, and the Potency was inconclusive: 25.1 µM [inhibitor, partial curve, poor fit]. `Cc1cc(-c2cc3c(cn2)CN(Cc2ccccc2F)CCN3)ccn1` was tested, and the Potency was active: 35.5 µM. In the case of `Cn1c(=O)c2c(nc(N3CCCCC3)n2CCSc2nnnn2-c2ccccc2)n(C)c1=O`, the “activity change, negative = inhibition” value was inactive: 12.7%. In the case of `CC1CCN(S(=O)(=O)c2ccc(-c3nc(C#N)c(NCc4cccnc4)o3)cc2)CC1`, the Potency was inconclusive: 14.1 µM [inhibitor, partial curve, poor fit]. With `CCNC(=O)NC(=O)COC(=O)c1cc(-c2ccco2)nc2ccccc12` the Potency was inconclusive: 7.08 µM [inhibitor, full curve, poor fit]. In the case of `S=C(NCCc1ccccc1Cl)Nc1ccc(Cl)c(Cl)c1`, the “activity change, negative = inhibition” value was inactive: -15.1%. With `CCCC(=O)N1Cc2ccccc2CC2(CCCN2Cc2ccncc2)C1` (stereo unspecified) the Potency was inconclusive: 50.1 µM [inhibitor, partial curve]. For `COc1cccc(-c2ncc(CNC(=O)[C@H]3CC[C@@H](N)C3)s2)c1`, the Potency was active: 25.1 µM. In the case of `Cc1ccccc1-c1ccc2c(n1)CN(CCOc1ccccc1)C(=O)CO2`, the “activity change, negative = inhibition” value was inactive: -3.58% [at 86.2 µM]. `COc1cccc(NC(=O)C(C)Nc2ccc3oc(C)nc3c2)c1` (stereo unspecified) was tested, and the Potency was inconclusive: 14.1 µM [inhibitor, partial curve, poor fit]. `COc1cccc(C(=O)NCc2nnc3c(-c4nc(C(C)C)no4)cccn23)c1` was tested, and the Potency was inconclusive: 15.8 µM [inhibitor, single point]. `CCOC(=O)c1nc(Nc2ccc(C(=O)OC)cc2)c2ccccc2n1` was tested, and the Potency was inconclusive: 2.24 µM [inhibitor, full curve, poor fit]. For `CCC1CN(Cc2cn(-c3ccccc3C)nc2-c2ccc(OC)c(F)c2)CCO1` (stereo unspecified), the Potency was inconclusive: 39.8 µM [inhibitor, single point]. In the case of `Cc1ccc(S(=O)(=O)c2nc(-c3cccs3)oc2SC(C)C)cc1`, the Potency was inconclusive: 10 µM [inhibitor, partial curve, poor fit]. With `COc1cc(C)c2c(c1C)C[C@H]([C@H](C)C(=O)O)CC2` the “activity change, negative = inhibition” value was inactive: -21.8% [at 115 µM]. For `N#Cc1ccccc1NC(=O)C(=O)NCCc1csc(-c2ccc(F)cc2)n1`, the Potency was inconclusive: 25.1 µM [inhibitor, single point]. With `c1cncc(-c2cc3c(cn2)CN(Cc2ccncc2)CCN3)c1` the Potency was inconclusive: 31.6 µM [inhibitor, single point].
